According to PubChem BioAssay AID686971 (National Center for Advancing Translational Sciences (NCATS), 2013):
In all, about 360,000 compounds went through this assay and about 7,500 (2.1%) were called active. This list was built around the results that the source calls inconclusive (neither active nor inactive); the mix of calls is not that of the screen. Calls come from the whole dose curve; as a rule, active = well fitted cell-killing curve with a large enough effect; inconclusive = small, poorly fitted or top-dose-only effect, or effect the other way, or another doubt; inactive = no such curve, though single readings can be large or run the other way. No potency is given beside an inconclusive call; the fits are too rough.

experiment: qHTS for induction of synthetic lethality in tumor cells producing 2HG: qHTS for the HT-1080-IDH1KD cell line; details: HT-1080 IDH1 knockdown viability, ATP luminescence, 48 h; activity, negative = toxicity: at 46.1 µM (top of the series) unless noted;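 for activity, negative = toxicity: 0% = DMSO wells and -100% = cell-free medium wells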
How it was run: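 IDH1KD HT-1080 cells, 750/well, RPMI + 5% FBS; compound pinned after 2 h settling; 48 h, 37 °C; CellTiter-Glo luminescence; % activity normalised to DMSO and no-cell wells; curves fitted, classed by r2 and efficacy.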
Potency is the fitted concentration of half-maximal effect; tags give direction and shape of the fitted curve.

Row | Structure (SMILES) | Potency | activity, negative = toxicity
1 | COc1ccccc1-n1c(SCC(=O)Nc2cccc(C)c2)nc2c(c1=O)SCC2 | inactive | 
2 | CC(C)(C)NC(=O)C(c1ccc(-c2ccccc2)cc1)N(C[C@H]1CC[C@@H]([C@@H]2CC[C@H](CO)O2)O1)C(=O)c1ccccc1F (some centres not stated) | inactive | 
3 | COc1ccc(/C=C/C(=O)NC(=S)NNC(=O)c2cnccn2)cc1 | inconclusive [cytotoxic, full curve] | 
4 | COc1cc(CNCCN2CCOCC2)ccc1OCc1cccc(Cl)c1 | inconclusive [cytotoxic, single point] | 
5 | Cc1cc(C)n(CC(=O)N/N=C/c2ccccn2)n1 |  | inconclusive: 32.8%
6 | Fc1ccccc1/C=C1\CCCC2=C1NC(=S)NC2c1ccccc1F (configuration not stated) | inconclusive [cytotoxic, single point] | 
7 | COc1ccc(COc2cc(-c3cccc(OC)c3)nc3ccc(NC(=O)C(C)C)cc23)cc1 | active: 2.91 µM | 
8 | O=C(O)C1CCCN(S(=O)(=O)Cc2ccccc2)C1 (configuration not stated) | inactive | 
9 | N#C/C(=C/c1ccc(N2CCOCC2)o1)c1ccc(Cl)cc1 | active: 3.55 µM | 
10 | COc1ccc(-c2csc(N3CCN(c4cc(C)nc5ccccc45)CC3)n2)cc1OC | active: 16.4 µM | 
11 | O=c1c2c([nH]n1-c1ccccc1)C[C@@H](C1CCCCC1)O[C@H]2c1ccc(F)cc1 | inconclusive [cytotoxic, full curve] | 
12 | CCOc1ccc(CN2CCN(Cc3cccn3-c3ncccn3)CC2CCO)cc1 (configuration not stated) | inactive | 
13 | Cc1nn(C)c(C(=O)NC(=S)Nc2ccccc2O)c1Cl | inconclusive [cytotoxic, partial curve, poor fit] | 
14 | COc1ccc(C(=O)NC(=S)NNC(=O)c2ccc(C)cc2)cc1 | inconclusive [cytotoxic, single point] | 
15 | CCN(CC)c1nc(OCCNC(=O)Nc2ccccc2)nc(N(CC)CC)n1 | active: 18.4 µM | 
16 | CCCCn1cnc2cc(NCc3ccncc3)ccc21 | inactive | 
17 | O=C1OC(/C(=C\Nc2ccc(F)cc2F)[N+](=O)[O-])c2ccccc21 (configuration not stated) | active: 18.4 µM | 
18 | COc1cccc(Cn2nnc(C(=O)Nc3cc(C)ccc3OC)c2N)c1 | inconclusive [cytotoxic, partial curve, poor fit] | 
19 | Cc1ccc(-c2ccc(/C=N/NC(=S)Nc3ccccc3)o2)cc1[N+](=O)[O-] | inconclusive [cytotoxic, single point] | 
20 | CCC(C)c1ccc(C(C)NC(=S)NC2CCCCC2)cc1 (configuration not stated) | active: 23.1 µM | 
21 | NC(=S)N/N=C/c1ccc(-c2cc(Cl)c(Cl)cc2Cl)o1 | inconclusive [cytotoxic, partial curve] | 
22 | CCc1ccc(OCC(=O)NC(NC(=S)Nc2ccccc2C)C(Cl)(Cl)Cl)cc1 (configuration not stated) | inconclusive [cytotoxic, single point] | 
23 | O=C(c1ccc2c(c1)CCC2)N1CCN(Cc2ccccc2)CC1 | inactive | 
24 | O=C(CN1C(=O)NC2(CCOc3ccccc32)C1=O)Nc1ccc(F)c(F)c1F (configuration not stated) | inconclusive [cytotoxic, single point] | 

Row | Structure (SMILES) | Potency | activity, negative = toxicity
25 | COc1cc(C2NC(=S)NC3=C2CCc2ccccc23)cc(OC)c1OC (configuration not stated) | inactive | 
26 | CCN1C=CC(=C2C(=O)c3ccccc3C2=O)C=C1 | active: 11.2 µM | 
27 | COc1cc(OC)cc(C(=O)Nc2nc(CC(=O)NCc3ccc(F)cc3)cs2)c1 | inconclusive [cytotoxic, single point] | 
28 | COc1ccccc1C(=O)NNC(=O)c1ccc(Br)o1 | inactive | 
29 | O=C1C=CC(=O)N1c1ccc(-c2nc3ccccc3o2)cc1 | inconclusive [cytotoxic, single point] | 
30 | CC(C)NC(=O)C1(C)CCN1Cc1ccc(-c2ccccc2)cc1 (configuration not stated) | inconclusive [cytotoxic, single point] | 
31 | CCOC(=O)C1=C[C@@H](C(C)(C)C)N(S(=O)(=O)c2ccc(C)cc2)[C@H]1c1ccccc1 | inconclusive [cytotoxic, single point] | 
32 | O=C(/C=C/c1ccco1)NC(=S)Nc1cccc(-c2nc3ccccc3s2)c1 | active: 20.6 µM | 
33 | COc1ccc(Cc2nnc(NC(=O)C3CC(=O)N(CCc4ccc(F)cc4)C3)s2)cc1OC (configuration not stated) | inconclusive [cytotoxic, single point] | 
34 | COc1cc(Cl)cc2c1Sc1ccccc1/C2=C/CCN(C)C | inconclusive [cytotoxic, single point] | 
35 | COc1ccc(C=O)cc1Cn1c(C)cc(C)c(C#N)c1=O | inactive | 
36 | Cc1[nH]n2c(=O)cc(C(C)(C)C)nc2c1-c1ccccc1 | inconclusive [cytotoxic, partial curve] | 
37 | O=C(OC1CC2CC1[C@H]1CCCCN1C2=O)N1CCN(C(=O)c2ccccc2)CC1 (some centres not stated) |  | inconclusive: 0.971% [cytotoxic]
38 | CCOc1ccc(-n2c(=S)sc3c(=O)[nH]c(SCC(=O)C(C)(C)C)nc32)cc1 | inconclusive [cytotoxic, partial curve] | 
39 | Cc1ccccc1Cn1c2ccccc2c2cnn(CC(=O)NCc3ccco3)c(=O)c21 | inconclusive [cytotoxic, single point] | 
40 | CCOC(=O)C1=C(Nc2ccc(OC)cc2)C(N)=NC1=N | active: 5.17 µM | 
41 | Cc1ccc(-n2nnnc2C(Cl)(Cl)c2nnnn2-c2ccc(C)cc2)cc1 | active: 5.62 µM | 
42 | O=C(CNC(=O)C1COc2ccccc2O1)N/N=C\c1ccccc1Cl (configuration not stated) | inactive | 
43 | COC(=O)c1ccc(-c2ccco2)n1Cc1nc(-c2ccc(OC)c(OC)c2)oc1C | inconclusive [cytotoxic, single point] | 
44 | O=S(=O)(c1ccc(N2CCCC2)cc1)C(F)(F)F | inactive | 
45 | O=C(COc1ccc(F)cc1)N/N=C/c1cccc2cccnc12 | inconclusive [cytotoxic, partial curve] | 
46 | CC(C)(C)N(Cc1ccccc1)C(=O)CSc1nnc(CNc2ccc(F)cc2)o1 | inconclusive [cytotoxic, single point] | 
47 | COc1ccc(C(=O)Nc2ccccc2C(=O)NC(Cc2ccc(O)cc2)C(=O)NNC(=O)c2ccc(C)cc2)cc1 (configuration not stated) | inconclusive [cytotoxic, single point] | 
